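Interpolation was linear, between the two tested concentrations surrounding the appropriate level; five concentrations were tested over 48 hours in 96-well plates. Here, GI50 denotes the concentration required for 50% inhibition of growth. TGI is the concentration that stops growth completely.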
Test system: NCI-H322M lung
Assay: growth of human tumour cells (NCI), 48 h

Structure (SMILES) | TGI | GI50
O=C(O)c1ccc2nc(-c3ccccn3)c(-c3ccccn3)nc2c1 | > 100 µM | 
CN(C)CCCCN1c2ccccc2Sc2ccc(N=[N+]=[N-])cc21 | 21 µM | 
CC1SC(c2ccc(OCc3ccccc3)cc2)N(NC(=O)C(O)(c2ccccc2)c2ccccc2)C1=O (centres undefined) | 20.5 µM | 4.84 µM
COc1ccc2nc3cc(Cl)ccc3c(NCCCN(C)CCCNc3ccc4ncn5c6ccccc6c(=O)c3c45)c2c1 | 6.81 µM | 
CC1(C)N=C(N)N=C(N)N1c1cccc(CC(=O)Nc2ccccc2)c1 | > 100 µM | 12.9 µM
Nc1nc(NCc2ccccc2)cc(NCc2ccccc2)n1 | 21.7 µM | 
OC1(c2ccccc2)c2ccccc2N(c2ccccc2)c2ccc(Cl)cc21 (centres undefined) | 1.46 µM | 0.392 µM
COc1cc(CCNC2=CC(=O)c3ncccc3C2=O)ccc1O | 16 µM | 
COc1ccc(N(c2ccc(C#N)cc2)c2ccc(C#N)cc2)cc1 | > 100 µM | 
CCO/C=N\C1=C(C#N)SC2=N/C(=C\c3ccco3)C(=O)N21 | > 100 µM | 
Cc1c(S(=O)(=O)/N=C(\NO)Nc2ccc(Cl)cc2)sc2ccc(Cl)cc12 | 31.9 µM | 
